This sample is rich in variants without activity.
B1: TPR 5TU (parent)
chain: GGAUCUUCUCGAUCUAACAAAAAAGACAAAUCUGCCACAAAGCUUGAGAGCAUCUUCGGAUGCAGAGGCGGCAGCCUUCGGUGGCGCGAUAGCGCCAACGUUCUCAACUAUGACACGCAAAACGCGUGCUCCGUUGAAUGGAGUUUAUCAUG

Variants of: B1
Experiment: polymerase ribozyme fitness, log enrichment relative to wild type (log ratio); higher = more active; in vitro selection for triplet polymerase activity
In short: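 One round of in vitro selection, in triplicate, was applied to PCR-built, transcribed mutant libraries of each subunit of a heterodimeric triplet polymerase ribozyme. The steps were annealing with a biotinylated primer, partner subunit and triplets, incubation frozen at −7 °C, gel excision of extended constructs, streptavidin-bead capture and RT-PCR. Fitness is the logarithm, base 2, of genotype enrichment over wild-type enrichment from inverse-variance-weighted replicate averages of Illumina-sequenced inputs and outputs, keeping genotypes with ≥10 input reads and ≥1 read per output.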

Variant | polymerase ribozyme fitness (log ratio)
GGAUCUUCUCGAUCUAACAAAAAAGACAAAUCUGCCACAAAGCUUGAGAGCAUCUUCGGAUGCAGAGGCGGCAGCCUUCGGUGGCGCGAUAGUGCCAACGUUCUCAACUCUGACACGCAAAACGCGUGCUCCGUUGAAUGGAGUUUAUCAUG [C93U A110C] | ≤ -4.2
GGAUCUUCUCGAUCUAACAAAAAAGACAAAUCUGCCACAAAGCUUGAGAGCAUCUUCGGAUGCAGAGGCGGCAGCCUUCGGUGGCGCGAUAGUGCCAACGUUCUCAACUUUGACACGCAAAACGCGUGCUCCGUUGAAUGGAGUUUAUCAUG [C93U A110U] | -4.1
GGAUCUUCUCGAUCUAACAAAAAAGACAAAUCUGCCACAAAGCUUGAGAGCAUCUUCGGAUGCAGAGGCGGCAGCCUUCGGUGGCGCGAUAGUGCCAAGGUUCUCAACUAUGACACGCAAAACGCGUGCUCCGUUGAAUGGAGUUUAUCAUG [C93U C99G] | -1.97
GGAUCUUCUCGAUCUAACAAAAAAGACAAAUCUGCCACAAAGCUUGAGAGCAUCUUCGGAUGCAGAGGCGGCAGCCUUCGGUGGCGCGAUAGUGCCAACGUUAUUAACUAUGACACGCAGAACGCGUGCUCCGCUGAAUGGAGUUUAUCAUG [C93U C103A C105U A120G U134C] | -3.94
GGAUCUUCUCGAUCUAACAAAAAAGACAAAUCUGCCACAAAGCUUGAGAGCAUCUUCGGAUGCAGAGGCGGCAGCCUUCGGUGGCGCGAUAGUGCCAACGUUCUUAACUAUGACACGCAAAACGCGUGCUCCGUUGAAUGGAGUUUAUCAUG [C93U C105U] | -2.55
GGAUCUUCUCGAUCUAACAAAAAAGACAAAUCUGCCACAAAGCUUGAGAGCAUCUUCGGAUGCAGAGGCGGCAGCCUUCGGUGGCGCGAUAGUGCCAACGUUCUCAACUAUGACAUGCAAAAAGCGUGCUCCGUUGAAUGGAGUUUAUCAUG [C93U C116U C123A] | -1.16
GGAUCUUCUCGAUCUAACAAAAAAGACAAAUCUGCCACAAAGCUUGAGAGCAUCUUCGGAUGCAGAGGCGGCAGCCUUCGGUGGCGCGAUAGUGCCAACGUUCUCAACUAUGACACGCAAAACGAGUGCUCCGUUGAAUGGAGUUUAUCAUG [C93U C125A] | -2.69
GGAUCUUCUCGAUCUAACAAAAAAGACAAAUCUGCCACAAAGCUUGAGAGCAUCUUCGGAUGCAGAGGCGGCAGCCUUCGGUGGCGCGAUAGUGCCAACGUUCUCAACUAUGACACGCAAAACGCGUGCUACGUUGAAUGGAGUUUAUCAUG [C93U C131A] | -2.97
GGAUCUUCUCGAUCUAACAAAAAAGACAAAUCUGCCACAAAGCUUGAGAGCAUCUUCGGAUGCAGAGGCGGCAGCCUUCGGUGGCGCGAUAGUCCCAACGUUCUCAACUAUGACACGCAAAACGCGUGCUCCAUUGAAUGGAGUUUAUCAUG [C93U G94C G133A] | ≤ -4.2
GGAUCUUCUCGAUCUAACAAAAAAGACAAAUCUGCCACAAAGCUUGAGAGCAUCUUCGGAUGCAGAGGCGGCAGCCUUCGGUGGCGCGAUAGUGCCAACGUUCUCAACUAUGACACACAAAACGCGUGCUCCGUUGAAUGGCGUUUAUCAUG [C93U G117A A142C] | -4.07
GGAUCUUCUCGAUCUAACAAAAAAGACAAAUCUGCCACAAAGCUUGAGAGCAUCUUCGGAUGCAGAGGCGGCAGCCUUCGGUGGCGCGAUAGUGCCAACGUUCUCAACUAUGACACGCAAAACGCGUGCUCCGUUGAAUUGAGUUUAUCAUG [C93U G140U] | -3.59
GGAUCUUCUCGAUCUAACAAAAAAGACAAAUCUGCCACAAAGCUUGAGAGCAUCUUCGGAUGCAGAGGCGGCAGCCUUCGGUGGCGCGAUAGUGCCAACGUUCUCAACUAUGACACGCAAAACGCGUGCUCCGUUGAAUGGACUUUAUCAUG [C93U G143C] | -3.12
GGAUCUUCUCGAUCUAACAAAAAAGACAAAUCUGCCACAAAGCUUGAGAGCAUCUUCGGAUGCAGAGGCGGCAGCCUUCGGUGGCGCGAUAGUGCCAACGUCCUUAACUAUGACAGGCAAAACGCGUGCUCCGUUGAAUGGAGUUUAUCAUU [C93U U102C C105U C116G G152U] | ≤ -4.2
GGAUCUUCUCGAUCUAACAAAAAAGACAAAUCUGCCACAAAGCUUGAGAGCAUCUUCGGAUGCAGAGGCGGCAGCCUUCGGUGGCGCGAUAGUGCCAACGUGCUCAACUAUGACACUCAAAACGCGUGCUCCGUAGAAUGGAGUUUAUCAUG [C93U U102G G117U U135A] | ≤ -4.2
GGAUCUUCUCGAUCUAACAAAAAAGACAAAUCUGCCACAAAGCUUGAGAGCAUCUUCGGAUGCAGAGGCGGCAGCCUUCGGUGGCGCGAUAGUGCCAACGUGCUCAACCAUGACACGCAAAACGCGUGCUCCGUUGAAUUGAGUUUAGCAUG [C93U U102G U109C G140U U148G] | ≤ -4.2
GGAUCUUCUCGAUCUAACAAAAAAGACAAAUCUGCCACAAAGCUUGAGAGCAUCUUCGGAUGCAGAGGCGGCAGCCUUCGGUGGCGCGAUAGUGCCAACGUUCUCAACUAUGACACGCAAAACGCGUGCUCCGUUGAACGGAGUUUAUCAUG [C93U U139C] | ≤ -4.2
GGAUCUUCUCGAUCUAACAAAAAAGACAAAUCUGCCACAAAGCUUGAGAGCAUCUUCGGAUGCAGAGGCGGCAGCCUUCGGUGGCGCGAUAGCACCAACGUUCUCGACUAUGACACGCAAAACGCGUGCUGCGUUGAAUGGAGUUUAUCAUG [G94A A106G C131G] | ≤ -4.2
GGAUCUUCUCGAUCUAACAAAAAAGACAAAUCUGCCACAAAGCUUGAGAGCAUCUUCGGAUGCAGAGGCGGCAGCCUUCGGUGGCGCGAUAGCACGAACGUUCUCAACUAUGACACGCAAAACGCGUGCUCCGUUGAAUGGAGUUUAUCAUG [G94A C96G] | -2.1
GGAUCUUCUCGAUCUAACAAAAAAGACAAAUCUGCCACAAAGCUUGAGAGCAUCUUCGGAUGCAGAGGCGGCAGCCUUCGGUGGCGCGAUAGCACUAAGGUUCUCAACUAUGACACGCAAAACGCGUGCUCCGUUGAAUGGAGGUUAUCAUG [G94A C96U C99G U144G] | ≤ -4.2

Reference: the RNAGym collection of RNA variant scans (doi:10.1073/pnas.2313332121)
